Data from the supplement of paper PMC4604168 (melanoma cell lines).
The list shows a part of the results. Most values come without repeats; read them as rough.

Key:
Assay in all cases: cell count relative to DMSO control; melanoma cells; higher = more viable cells
Details in all cases: library dose: standard library concentration; 72 h
G361 = test system: G361
IPC-298 = test system: IPC-298
IST-MEL1 = test system: IST-MEL1
LB2518-MEL = test system: LB2518-MEL
LOXIMVI = test system: LOXIMVI
MEL-HO = test system: MEL-HO
MZ2-MEL = test system: MZ2-MEL
MeWo = test system: MeWo
RPMI7951 = test system: RPMI7951
RVH-421 = test system: RVH-421
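Also: cells treated in 1,536-well plates, then fixed and DAPI-stained, with nuclei counted from automated high-throughput microscope images.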

| Compound | cell count (G361) [%] | cell count (IPC-298) [%] | cell count (IST-MEL1) [%] | cell count (LB2518-MEL) [%] | cell count (LOXIMVI) [%] | cell count (MEL-HO) [%] | cell count (MZ2-MEL) [%] | cell count (MeWo) [%] | cell count (RPMI7951) [%] | cell count (RVH-421) [%] |
| --- | --- | --- | --- | --- | --- | --- | --- | --- | --- | --- |
| CNC(=O)c1cc(Oc2ccc(NC(=O)Nc3ccc(Cl)c(C(F)(F)F)c3)cc2)ccn1 [sorafenib] + CCN(CC)CCCCNc1ncc2cc(-c3cc(OC)cc(OC)c3)c(NC(=O)NC(C)(C)C)nc2n1 [PD173074] (first compound 2 µM, partner dose 0.5 µM) | 95.4 | 96.9 | 101 | 87 | 128 | 100 | 102 | 86.5 | 88.7 | 92.8 |
| C=CCNC1=C2C[C@@H](C)C[C@H](OC)[C@H](O)[C@@H](C)/C=C(\C)[C@H](OC(N)=O)[C@@H](OC)/C=C\C=C(/C)C(=O)NC(=CC1=O)C2=O [Tanespimycin] + O=S(=O)(c1ccccc1)N(CC(F)(F)F)c1ccc(C(O)(C(F)(F)F)C(F)(F)F)cc1 [T0901317] (first compound 0.01 µM, partner dose 7 µM) | 56.4 | 80 | 74.2 | 87 | 83 | 83.1 | 121 | 59.7 | 27.5 | 94 |
| C=CCNC1=C2C[C@@H](C)C[C@H](OC)[C@H](O)[C@@H](C)/C=C(\C)[C@H](OC(N)=O)[C@@H](OC)/C=C\C=C(/C)C(=O)NC(=CC1=O)C2=O [Tanespimycin] + c1cc(-c2cnn3cc(-c4ccc(OCCN5CCCCC5)cc4)cnc23)ccn1 [Dorsomorphin] (first compound 0.01 µM, partner dose 2 µM) | 57.7 | 83.7 | 81.2 | 67.1 | 128 | 89.7 | 76.1 | 59.1 | 31.4 | 97.8 |
| C=CCNC1=C2C[C@@H](C)C[C@H](OC)[C@H](O)[C@@H](C)/C=C(\C)[C@H](OC(N)=O)[C@@H](OC)/C=C\C=C(/C)C(=O)NC(=CC1=O)C2=O [Tanespimycin] + O=c1cc(-c2cccc3c2Sc2ccccc2S3)oc(N2CCOCC2)c1 [KU55933] (first compound 0.01 µM, partner dose 5 µM) | 58.9 | 86.9 | 52 | 94.4 | 112 | 92.5 | 103 | 75 | 24.1 | 128 |
| CN1CCN(c2ccc3nc(-c4c(N)c5c(F)cccc5[nH]c4=O)[nH]c3c2)CC1 [Dovitinib] + O=C(Nc1ccccc1)c1cc([N+](=O)[O-])ccc1Cl [GW9662] (first compound 0.5 µM, partner dose 10 µM) | 58 | 83.5 | 82.4 | 56.9 | 318 | 76.5 | 61.6 | 43 | 86.3 | 78.9 |
| CS(=O)(=O)CCNCc1ccc(-c2ccc3ncnc(Nc4ccc(OCc5cccc(F)c5)c(Cl)c4)c3c2)o1 [lapatinib] + CC(=O)c1c(C)c2cnc(Nc3ccc(N4CCNCC4)cn3)nc2n(C2CCCC2)c1=O [palbociclib] (first compound 4 µM, partner dose 0.2 µM) | 48.6 | 76.7 | 71.3 | 62.7 | 53.7 | 66.3 | 57.6 | 59.6 | 58.9 | 18 |
| CN1CCN(c2ccc3nc(-c4c(N)c5c(F)cccc5[nH]c4=O)[nH]c3c2)CC1 [Dovitinib] + OCc1c[nH]c2ccccc12 [Indole-3-carbinol] (first compound 0.5 µM, partner dose 4 µM) | 78.2 | 80.7 | 84 | 65.9 | 102 | 79.5 | 65.6 | 63.2 | 92.2 | 88.8 |
| CNC(=O)c1cc(Oc2ccc(NC(=O)Nc3ccc(Cl)c(C(F)(F)F)c3)cc2)ccn1 [sorafenib] + Cc1nc(Nc2ncc(C(=O)Nc3c(C)cccc3Cl)s2)cc(N2CCN(CCO)CC2)n1 [dasatanib] (first compound 2 µM, partner dose 0.02 µM) | 84.1 | 81.2 | 72.1 | 74.3 | 96.3 | 89.2 | 67 | 77.7 | 33 | 80.8 |
| CNC(=O)c1cc(Oc2ccc(NC(=O)Nc3ccc(Cl)c(C(F)(F)F)c3)cc2)ccn1 [sorafenib] + COc1ccc(-c2ccc3c(N4CCOCC4)nc(N4C[C@@H](C)O[C@@H](C)C4)nc3n2)cc1CO [KU0063794] (first compound 2 µM, partner dose 0.1 µM) | 77.4 | 84.8 | 81.3 | 80.5 | 112 | 84.3 | 102 | 71.2 | 83.9 | 102 |
| CN1CCN(c2ccc3nc(-c4c(N)c5c(F)cccc5[nH]c4=O)[nH]c3c2)CC1 [Dovitinib] + Cc1nc(Nc2ncc(C(=O)Nc3c(C)cccc3Cl)s2)cc(N2CCN(CCO)CC2)n1 [dasatanib] (first compound 0.5 µM, partner dose 0.02 µM) | 64.4 | 71.6 | 65 | 47 | 28.2 | 66 | 36.6 | 53.9 | 32.1 | 83.3 |
| CNC(=O)c1cc(Oc2ccc(NC(=O)Nc3ccc(Cl)c(C(F)(F)F)c3)cc2)ccn1 [sorafenib] + COc1cc2c(Oc3ccc4[nH]c(C)cc4c3F)ncnc2cc1OCCCN1CCCC1 [cediranib] (first compound 2 µM, partner dose 2 µM) | 86.4 | 89.7 | 90.1 | 72.4 | 76.7 | 98.1 | 103 | 61.3 | 71.4 | 83.7 |
| CN1CCN(c2ccc3nc(-c4c(N)c5c(F)cccc5[nH]c4=O)[nH]c3c2)CC1 [Dovitinib] + CC(=O)c1c(C)c2cnc(Nc3ccc(N4CCNCC4)cn3)nc2n(C2CCCC2)c1=O [palbociclib] (first compound 0.5 µM, partner dose 0.2 µM) | 58.4 | 47.3 | 72.7 | 50.3 | 82.7 | 58.8 | 38 | 44.3 | 62.2 | 72.9 |
| C[C@@H](Oc1cc(-c2cnn(C3CCNCC3)c2)cnc1N)c1c(Cl)ccc(F)c1Cl [Crizotinib] + OCCn1cc(-c2cnc3nnn(Cc4ccc5ncccc5c4)c3n2)cn1 [PF04217903] (first compound 1 µM, partner dose 5 µM) | 58.1 | 91 | 78.8 | 63.5 | 74.2 | 82.6 | 82.8 | 60.4 | 62.9 | 55.1 |
| CNC(=O)c1cc(Oc2ccc(NC(=O)Nc3ccc(Cl)c(C(F)(F)F)c3)cc2)ccn1 [sorafenib] + O=C(O)C(=O)Nc1sc2c(c1C(=O)O)CCNC2 [TCS401] (first compound 2 µM, partner dose 8.33333 µM) | 95.3 | 81.4 | 101 | 93.7 | 118 | 92.2 | 91.6 | 76.6 | 86.9 | 150 |
| CN1CCN(c2ccc3nc(-c4c(N)c5c(F)cccc5[nH]c4=O)[nH]c3c2)CC1 [Dovitinib] + Oc1cc(-c2nc(-c3ccccc3)[nH]c2-c2ccncc2)ccc1Cl [L779450] (first compound 0.5 µM, partner dose 1 µM) | 31.3 | 60.8 | 66 | 60.2 | 48 | 66.8 | 47.6 | 55.6 | 67.6 | 24.5 |
| CS(=O)(=O)CCNCc1ccc(-c2ccc3ncnc(Nc4ccc(OCc5cccc(F)c5)c(Cl)c4)c3c2)o1 [lapatinib] + COc1ccc2c(c1)CCC1C2CCC2(C)C(NCCCCCCN3C(=O)C=CC3=O)CCC12 [U73122] (first compound 4 µM, partner dose 2 µM) | 25.6 | 67.9 | 90.7 | 85.9 | 64.6 | 63.6 | 61.6 | 47.3 | 13.2 | 73.2 |
| CN1CCN(c2ccc3nc(-c4c(N)c5c(F)cccc5[nH]c4=O)[nH]c3c2)CC1 [Dovitinib] + CNC(=O)c1cc(Oc2ccc(NC(=O)Nc3ccc(Cl)c(C(F)(F)F)c3)cc2)ccn1 [sorafenib] (first compound 0.5 µM, partner dose 2 µM) | 56.7 | 45.9 | 67.7 | 59.3 | 89.7 | 66.6 | 42.1 | 32.9 | 85.3 | 90.7 |
| CN1CCN(c2ccc3nc(-c4c(N)c5c(F)cccc5[nH]c4=O)[nH]c3c2)CC1 [Dovitinib] + O=C1NC(=O)/C(=C/c2ccc(-c3ccc(F)cc3O)o2)S1 [AS252424] (first compound 0.5 µM, partner dose 5 µM) | 37.6 | 60.5 | 74.5 | 57.2 | 62.8 | 71.2 | 44.9 | 49.2 | 70.5 | 91.7 |
| C[C@@H](Oc1cc(-c2cnn(C3CCNCC3)c2)cnc1N)c1c(Cl)ccc(F)c1Cl [Crizotinib] + COc1cc2c(Oc3ccc4[nH]c(C)cc4c3F)ncnc2cc1OCCCN1CCCC1 [cediranib] (first compound 1 µM, partner dose 2 µM) | 101 | 103 | 132 | 89.2 | 75.8 | 101 | 119 | 77.3 | 75.2 | 57.1 |
| CN1CCN(c2ccc3nc(-c4c(N)c5c(F)cccc5[nH]c4=O)[nH]c3c2)CC1 [Dovitinib] + O=C(O)[C@@H]1[O][Sb](=[O])([O][Sb]2(=[O])[O][C@H]([C@H](O)CO)[C@H](O)[C@H](C(=O)O)[O]2)[O][C@H]([C@H](O)CO)[C@@H]1O [stibogluconate] (first compound 0.5 µM, partner dose 10 µM) | 65.8 | 52.6 | 77.4 | 58.7 | 111 | 76.8 | 56.8 | 42.5 | 83.6 | 54.1 |
| CN1CCN(c2ccc3nc(-c4c(N)c5c(F)cccc5[nH]c4=O)[nH]c3c2)CC1 [Dovitinib] + Clc1ccc(Nc2nnc(Cc3ccncc3)c3ccccc23)cc1 [vatalanib] (first compound 0.5 µM, partner dose 10 µM) | 55.3 | 50.8 | 58.4 | 41.9 | 75.3 | 55.7 | 33 | 63.3 | 55.1 | 66.4 |
